Out of some 310,000 compounds screened, about 14,000 (4.5%) showed an effect of 50% or more. The effect is printed as a negative number. Some of the results follow.
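Also: peak tail current of the secondary pulse compared with the same well before compound.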

human ether-à-go-go-related gene (hERG) potassium channel, sequence (Q12809 whole entry, looked up): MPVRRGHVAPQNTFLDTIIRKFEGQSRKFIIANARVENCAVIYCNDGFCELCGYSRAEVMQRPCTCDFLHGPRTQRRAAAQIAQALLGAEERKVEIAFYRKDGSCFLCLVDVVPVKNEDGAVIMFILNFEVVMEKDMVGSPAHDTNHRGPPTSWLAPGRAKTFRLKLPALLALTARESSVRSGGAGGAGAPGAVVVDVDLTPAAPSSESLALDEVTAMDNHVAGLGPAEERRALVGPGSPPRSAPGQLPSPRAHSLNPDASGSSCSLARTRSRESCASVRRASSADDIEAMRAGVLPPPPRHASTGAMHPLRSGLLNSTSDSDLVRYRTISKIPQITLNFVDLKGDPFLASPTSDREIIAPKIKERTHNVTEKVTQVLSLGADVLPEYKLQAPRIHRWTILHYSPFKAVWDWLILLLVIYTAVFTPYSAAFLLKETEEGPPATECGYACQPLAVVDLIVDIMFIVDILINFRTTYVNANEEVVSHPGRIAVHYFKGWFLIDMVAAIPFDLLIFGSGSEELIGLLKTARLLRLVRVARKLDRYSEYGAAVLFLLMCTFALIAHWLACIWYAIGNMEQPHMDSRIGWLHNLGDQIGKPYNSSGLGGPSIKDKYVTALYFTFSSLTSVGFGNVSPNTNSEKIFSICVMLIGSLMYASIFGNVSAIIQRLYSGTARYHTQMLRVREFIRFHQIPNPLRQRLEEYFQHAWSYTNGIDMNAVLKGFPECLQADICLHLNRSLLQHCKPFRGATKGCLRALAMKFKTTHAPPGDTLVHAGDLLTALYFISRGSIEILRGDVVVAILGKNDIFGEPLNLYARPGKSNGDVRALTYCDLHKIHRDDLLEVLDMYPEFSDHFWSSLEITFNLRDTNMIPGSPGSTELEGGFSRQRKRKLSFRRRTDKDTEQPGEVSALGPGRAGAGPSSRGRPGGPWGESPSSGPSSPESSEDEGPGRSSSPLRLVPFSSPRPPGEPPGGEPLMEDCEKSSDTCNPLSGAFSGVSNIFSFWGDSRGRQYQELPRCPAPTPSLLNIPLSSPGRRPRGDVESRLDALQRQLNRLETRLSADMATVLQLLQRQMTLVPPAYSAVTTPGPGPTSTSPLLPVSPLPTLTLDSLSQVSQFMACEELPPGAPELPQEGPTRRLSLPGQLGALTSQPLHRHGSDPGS

This experiment concerns the target human ether-à-go-go-related gene (hERG) potassium channel (human, UniProt Q12809). As to the kind of experiment: primary screen, population patch clamp on CHO cells stably expressing hERG.
With `CCN(CC(=O)NCc1cccs1)C(=O)c1ccc(S(=O)(=O)N(C)C)cc1`, the “hERG current change (%, negative = inhibition) at 10uM” value turned out to be 48.6%.
Under `CCCc1n(CC(O)COC2CCCCC2)c2ccccc2[n+]1C.[I-]` (stereo not drawn) stands -6.78%; under `CC(=O)Nc1ccc(N/C=C/C(=O)c2ccc(C)cc2)cc1`, 18.1%.
The same measure for `c1ccc(OCCSc2nnc3sc4ccccc4n23)cc1`: -13.7%.
As for `Nc1[nH]nc2nc3ccccc3cc12`, the “hERG current change (%, negative = inhibition) at 10uM” value is 23%.
The same measure for `COC(=O)CC(NC(=O)c1ccco1)c1ccc(C(C)C)cc1` (stereo not drawn): -16.6%; for `O=C(Nc1ccsn1)c1ccc(Cl)cc1Cl`: 20.7%.
Under `COc1ccc(CN2CCNC(=O)C2CC(=O)N2CCCCO2)c(OC)c1` (stereo not drawn) stands 13.9%; under `C/C=C(/C)C(=O)O[C@@H]1c2cc3c(c4c2[C@@]2(CO4)C(=O)C(OC)=C(OC)C=C2C[C@@H](C)[C@H]1C)OCO3`, -5.17%; under `CN(C(=O)c1cccc(Cl)c1)C1CCCN(Cc2ccccc2F)C1` (stereo not drawn), 0.373%.
For the compound `Cc1ccnc(N2CCC(C(=O)Nc3ccc4c(c3)OCCO4)CC2)n1`, the “hERG current change (%, negative = inhibition) at 10uM” value was 9.83%.
Under `CC(NC(=O)c1cccs1)C(c1cccs1)N1CCOCC1` (stereo not drawn) stands 11.8%; under `CCOC(=O)c1c(CCl)nc2ccccc2c1C.Cl`, 31.5%; under `O=C(Nc1ccccn1)c1cc(-c2cccc(Cl)c2)nc2ccccc12`, 13.3%.
Under `C=CCN1C(=O)/C(=C2/Sc3ccccc3N2C)SC1=Nc1c(C)n[nH]c1C` stands -3.99%; under `CCn1nc(C)c(CNC(=O)C2CCC(=O)N(Cc3cccc(F)c3)C2)c1C` (stereo not drawn), 15%.
The same measure for `Cc1nonc1NC(=O)CSc1nc2cc(Cl)ccc2c2c1CCCC2`: 2.15%; for `Oc1ccc(C=NCCc2ccccc2)cc1`: 10.2%.
In the case of `CCCCCCC(=O)N/N=C/c1ccco1`, the “hERG current change (%, negative = inhibition) at 10uM” value was -21.9%.
Under `CCCCn1c(=O)[nH]c(=O)c2c1nc(-c1ccc(-c3ccccc3Br)o1)n2CCOC` stands -2.63%.
`CCc1ccccc1NC(=O)c1cc(C2CC2)on1`: the “hERG current change (%, negative = inhibition) at 10uM” value was -24.9%.
The same measure for `O=C1Nc2ccccc2C1C(C[N+](=O)[O-])c1ccccn1` (stereo not drawn): 20.3%; for `CCOC(=O)C1(Nc2nccs2)Sc2ccccc2NC1=O` (stereo not drawn): -9.73%; for `COc1ccc(Cl)c(Cn2c(NCc3ccco3)nc3c2c(=O)n(C)c(=O)n3C)c1`: 0.592%.
Under `N#Cc1nc(COc2ccccc2)oc1N1CCN(Cc2ccccc2)CC1` stands -21.9%.
As to `Cc1cc(C(=O)NCC(=O)Nc2c(C)cccc2C)c2ccccc2n1`, the “hERG current change (%, negative = inhibition) at 10uM” value is recorded as 8.37%.
The same measure for `C=CC[n+]1c(-c2ccccc2)csc1NC(C)(C)C.[Br-]`: -6.95%; for `CCOc1ccccc1NC(=O)CSc1nnc2c(CC)c(C)nc(N)n12`: 4.35%.
The same measure for `CC(C)CC(=O)Nc1ccc(C(=O)NNC(=O)C(c2ccccc2)c2ccccc2)cc1`: 18.7%; for `CCCCCCn1c(=O)[nH]c2nc3cc(N)ccc3nc2c1=O`: -7.9%; for `CCC(C)C(NC(=O)c1ccc(Cl)cc1Cl)C(=O)O` (stereo not drawn): 14.3%.
The same measure for `O=C(C(=O)N1CCOCC1)c1cn(Cc2c(F)cccc2Cl)c2ccccc12`: 22.1%; for `O=C(NCc1ccc2c(c1)OCO2)c1nc(Cn2cc([N+](=O)[O-])cn2)no1`: -33.2%; for `COc1ccc(CCNC(=O)CN(c2cccc([N+](=O)[O-])c2)S(C)(=O)=O)cc1OC`: 30.9%.
Take `CC(NC(=O)CCCCCN1C(=O)c2ccccc2C1=O)c1ccc2c(c1)CCCC2` (stereo not drawn): the “hERG current change (%, negative = inhibition) at 10uM” value is given as -17.5%.
The same measure for `CSc1nc2ccc(S(=O)(=O)N3CCOCC3)cc2s1`: 1.63%; for `CCOC(=O)CON1C(=O)C(=O)N(OCC(=O)OCC)C2CCCCC21` (stereo not drawn): 11.7%; for `CC(OC(=O)c1n[nH]c2ccccc12)C(=O)Nc1ccccc1[N+](=O)[O-]` (stereo not drawn): 3.73%.
The same measure for `COc1ccc2nc(NC(=O)CCNS(=O)(=O)c3ccc4c(c3)oc(=O)n4C)sc2c1`: -5.68%; for `Cc1cccc(C)c1Nc1c(-c2ccc(N3CCOCC3)cc2)nc2cnccn12`: -8.65%.
On to `Clc1ccc2oc(-c3cccnc3NCc3ccccc3)nc2c1`, for which the “hERG current change (%, negative = inhibition) at 10uM” value is reported as -15.3%.
With `O=C(Nc1cc(S(=O)(=O)N2CCOCC2)ccc1-n1cncn1)c1ccc(Cl)cc1`, the “hERG current change (%, negative = inhibition) at 10uM” value is on record as -50.4%.
The same measure for `O=C(NCC1CCCO1)Nc1ccccc1` (stereo not drawn): -1.34%.
Under `COc1ccc(N2CCN(CC(=O)c3ccc(O)c(C)c3O)CC2)cc1` stands 16.7%.
The same measure for `COc1cc(/C=N/O)cc(Br)c1OCc1cccc(Cl)c1`: 5.34%.
For the compound `Cc1cc(C)nc(NS(=O)(=O)c2ccc(NC(=O)CN3C(=O)c4ccccc4C3=O)cc2)n1`, the “hERG current change (%, negative = inhibition) at 10uM” value stood at 5.38%.
In the case of `O=C(Nc1cccc([N+](=O)[O-])c1)C(=O)N1CCCCC1`, the “hERG current change (%, negative = inhibition) at 10uM” value is on record as 9.35%.
Under `COc1cc(NC(=O)CN(C)CCOc2ccccc2)c(C)cc1[N+](=O)[O-]` stands -15.7%; under `COC(=O)c1cc(OC)c(OC)cc1NC(=O)CN1CCOCC1`, -1.45%; under `O=[N+]([O-])c1ccccc1CSc1nnc2ccccn12`, -0.991%.
For `COc1ccc(-c2cc(C)no2)cc1S(=O)(=O)NCCc1ccco1`, the “hERG current change (%, negative = inhibition) at 10uM” value is reported as -16.2%.
As to `COc1cccc(C2c3[nH]c4ccccc4c3C[C@H]3C(=O)N(c4ccccc4C(=O)N4CCC(C(=O)O)CC4)C(=O)N23)c1` (stereo partly drawn), the “hERG current change (%, negative = inhibition) at 10uM” value came out at 1.79%.
The same measure for `CC(=O)C1=C(O)C(=O)N(CCc2c[nH]c3ccccc23)C1c1ccco1` (stereo not drawn): 6.71%; for `Fc1ccccc1/C=N/Nc1nc(-c2ccccn2)nc2ccccc12`: 14.9%.
Regarding `COc1cc(Br)cc(/C=C/c2ccc3cccc(O)c3n2)c1O`, the “hERG current change (%, negative = inhibition) at 10uM” value is reported as 19.5%.
On to `CS(=O)(=O)N(CC(=O)N1CCN(c2ccccc2)CC1)c1cc(C(F)(F)F)ccc1Cl`, for which the “hERG current change (%, negative = inhibition) at 10uM” value was -25.4%.
On to `CC(C)C[C@H](NC(=O)N1CC(=O)Nc2ccccc21)C(=O)N[C@@H](Cc1ccccc1)C(=O)O`, for which the “hERG current change (%, negative = inhibition) at 10uM” value stood at 13.2%.
For `O=c1c2ccccc2nc(C[n+]2ccccc2)n1-c1cccc(C(F)(F)F)c1.[Br-]`, the “hERG current change (%, negative = inhibition) at 10uM” value is listed as 13.1%.
The same measure for `Cn1c(NCCCO)nc2c1c(=O)n(Cc1ccccc1F)c(=O)n2C`: 2.95%; for `Cc1n[nH]c(C)c1CCNC(=O)C1CCC(=O)N(CCc2cccc(F)c2)C1` (stereo not drawn): 9.63%.
The same measure for `COc1ccc(Cn2c(O)c(C=NCCCn3ccnc3)c(=O)[nH]c2=O)cc1`: 0.947%; for `COc1ccc(S(=O)(=O)Nc2cc(OC)c(NC(=O)c3ccco3)cc2OC)cc1`: -21.3%.
The same measure for `O=S(=O)(c1ccc(Cl)cc1)N1CCN(C(=S)NCC2CCCO2)CC1` (stereo not drawn): -34.7%.
On to `COc1cccc(CCc2nnc(CCC(=O)N3CCCC3c3nccs3)o2)c1` (stereo not drawn), for which the “hERG current change (%, negative = inhibition) at 10uM” value is 16%.
Consider `CNC(=O)c1ccc(NC(=O)Nc2ccccc2)cc1`, for which the “hERG current change (%, negative = inhibition) at 10uM” value is 12.9%.
Turning to `COc1ccc(-c2ccc(CCC(=O)O)n2NC(=O)c2ccc(O)cc2)cc1`, the “hERG current change (%, negative = inhibition) at 10uM” value was determined as 9.63%.
Under `COc1cc(C(=O)NNC(=O)c2ccc(S(=O)(=O)N3CCCCC3)cc2)cc(OC)c1OC` stands -17%; under `CN(C)CCN(C(=O)CCS(=O)(=O)c1ccccc1)c1nc2c(F)cccc2s1`, 13.6%; under `O=C(NCCc1cccs1)C1CC(c2ccccc2[N+](=O)[O-])=NO1` (stereo not drawn), -16.3%.
The same measure for `O=C(CSc1ncnc2c1nnn2Cc1ccc(F)cc1)NC1CCCCC1`: 11.8%; for `Cc1cc(C(=O)N=Nc2c(O)n(C(C)C)c3ccccc23)n[nH]1`: -21.6%.
With `Cc1ccc(C(=O)CCC(=O)Nc2cccc(C)c2)cc1`, the “hERG current change (%, negative = inhibition) at 10uM” value worked out at 15.3%.
For `COc1ccccc1NC(=O)CSc1nnc(-c2ccccn2)n1Cc1ccco1`, the “hERG current change (%, negative = inhibition) at 10uM” value is -9.97%.
As to `COC(=O)CSc1nnc(-c2ccco2)o1`, the “hERG current change (%, negative = inhibition) at 10uM” value stood at 8.13%.
As for `CCOc1cc(CNc2ncn[nH]2)ccc1OCC(=O)NC(C)(C)C`, the “hERG current change (%, negative = inhibition) at 10uM” value amounted to 5.22%.
The same measure for `CCOc1ccc(-c2csc(NC(=O)CSCC(=O)O)n2)c2ccccc12`: 0.0856%; for `CCCCC(CC)CNC(=O)/C=C/c1ccc(F)cc1` (stereo not drawn): -10.8%; for `CC(=O)c1nn(-c2ccccc2)cc1C(=O)c1ccc(Br)cc1`: 30%.
Under `COc1ccccc1OCC(=O)N1CCC2(CC1)CC(=O)c1ccccc1O2` stands -40.2%; under `O=C(COC(=O)C1(c2ccc(F)cc2)CCCC1)N1CCOCC1`, 3.09%.
In the case of `N#Cc1ccccc1OCCCNC1CCCC1.O=C(O)C(=O)O`, the “hERG current change (%, negative = inhibition) at 10uM” value was -11.5%.
`CCc1ccccc1-n1c(SCC(=O)c2c(N)n(C3CC3)c(=O)[nH]c2=O)nnc1N1CCOCC1`: the “hERG current change (%, negative = inhibition) at 10uM” value worked out at 8.13%.
Regarding `Cc1cc(OCC(=O)Nc2ccccn2)c2c(C)c(C)c(=O)oc2c1`, the “hERG current change (%, negative = inhibition) at 10uM” value came to 15.9%.
For the compound `O=C(Nc1cc(C(F)(F)F)ccc1N1CCOCC1)c1ccc(Cl)nc1`, the “hERG current change (%, negative = inhibition) at 10uM” value is reported as -20%.
The same measure for `Cc1cccc(C)c1OCC(=O)N(Cc1cccs1)C1CCS(=O)(=O)C1` (stereo not drawn): -8.04%; for `COc1cc(SC)ccc1C(=O)N(C)CC(=O)Nc1cccc2ccccc12`: -4.21%.
Under `C/C(=N\NS(=O)(=O)c1ccc(Cl)cc1)c1ccc(NC(=O)c2ccco2)cc1` stands 14.5%.
